From PubChem BioAssay (NCI)
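Interpolation was linear, between the two tested concentrations surrounding the appropriate level; five concentrations were tested over 48 hours in 96-well plates. At the GI50, growth is halved. At the TGI there is no net growth.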

Tested on: NCI-H322M lung
Experiment: NCI anticancer screen, dose series, 48 h

CN1CCN(Cc2ccc(NC(=O)c3cncc(C#Cc4cnn5cccnc45)c3)cc2C(F)(F)F)CC1
GI50: 3.29 µM
TGI: 10.4 µM
